Source: patent US20190194334A1 (MUSC FOUNDATION FOR RESEARCH DEVELOPMENT, published 2019)

Biological target: cell surface (plasma membrane) nucleolin of human tumor cells (human, UniProt P19338)
Assay: cell-based or functional assay

UniProt P19338, sequence (P19338 2-710 limits assumed): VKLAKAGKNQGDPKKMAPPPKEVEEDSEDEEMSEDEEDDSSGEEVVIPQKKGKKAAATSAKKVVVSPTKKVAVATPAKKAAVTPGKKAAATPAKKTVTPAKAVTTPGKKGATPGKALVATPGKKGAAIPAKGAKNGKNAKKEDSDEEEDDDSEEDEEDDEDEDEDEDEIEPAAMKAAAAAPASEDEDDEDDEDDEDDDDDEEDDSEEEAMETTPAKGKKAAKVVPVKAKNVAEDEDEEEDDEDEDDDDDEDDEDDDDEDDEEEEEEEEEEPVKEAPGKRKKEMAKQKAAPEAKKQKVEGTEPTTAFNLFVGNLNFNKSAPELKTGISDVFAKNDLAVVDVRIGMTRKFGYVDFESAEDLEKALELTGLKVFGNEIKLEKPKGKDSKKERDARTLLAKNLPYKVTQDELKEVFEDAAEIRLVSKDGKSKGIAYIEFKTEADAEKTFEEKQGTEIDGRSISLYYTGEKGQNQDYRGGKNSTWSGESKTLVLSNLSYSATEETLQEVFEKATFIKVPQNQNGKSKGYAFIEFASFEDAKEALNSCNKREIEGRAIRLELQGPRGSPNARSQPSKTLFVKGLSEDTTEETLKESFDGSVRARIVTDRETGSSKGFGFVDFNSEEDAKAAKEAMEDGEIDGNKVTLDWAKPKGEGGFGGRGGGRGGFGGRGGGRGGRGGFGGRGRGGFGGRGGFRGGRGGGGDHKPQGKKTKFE

B1: antibody CP1 (purified from human B cells) (antibody, human IgG1, kappa)
heavy: QVQLQESGPGLVKPSQTLSLTCTVSGGSINSGGFYWSWIRQHPGKGLEWIGYISYTGSTYYNPSLKSRVNISADTSKNRFSLKLSSVTAADTAVYYCARDMNDGLQIWGQGTLVTVSA[letters of human IgG1 constant region left out]
light: [letters of about 100 residues left out][letters of about 120 residues left out]
notes: also called CP1M4.2
  IC50, viability of human MV4-11 AML cells (trypan blue counting, 96 h): 0.4 µg/mL
